Test results reported in the BET-seq Pho4 binding data (Le et al. 2018).
This is one part of the list. The energies were worked out here from pooled read counts, against the library average; single values are noisy.

The sequences below were run against T1, Pho4 (S. cerevisiae) (UniProt P07270) (assay: relative binding free energy (BET-seq); higher = weaker binding). Settings: reference: library average.
T1 sequence: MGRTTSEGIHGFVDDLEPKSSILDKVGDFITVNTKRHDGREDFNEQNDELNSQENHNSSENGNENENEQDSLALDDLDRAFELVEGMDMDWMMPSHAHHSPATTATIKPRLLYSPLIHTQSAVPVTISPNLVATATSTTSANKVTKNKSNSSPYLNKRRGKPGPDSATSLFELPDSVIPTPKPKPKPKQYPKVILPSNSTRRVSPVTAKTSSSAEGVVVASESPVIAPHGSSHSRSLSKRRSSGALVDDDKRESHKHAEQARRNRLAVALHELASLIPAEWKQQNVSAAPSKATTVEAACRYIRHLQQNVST

Relative binding free energy, 0.02 kcal/mol:
GGAATCACGTGCGTTG
CAGGACACGTGGATGT
GGGTGCACGTGCCTTT

Relative binding free energy, 0.11 kcal/mol:
CATGTCACGTGTTGTT
GTTTGCACGTGATCAG
GGGCTCACGTGGGGAC
CTTATCACGTGTTGGA
TTCATCACGTGGGTTT
TTGGTCACGTGCGAGC
ATTAGCACGTGATTGG

Relative binding free energy, 0.13 kcal/mol:
GTGGACACGTGGCGAT
ATGCTCACGTGTATTG
TAAGTCACGTGTTTAC
ATAGACACGTGTGTTA
GGTCTCACGTGCGGTG
TGGTGCACGTGACTTT

Relative binding free energy, -0.1 kcal/mol:
GAATACACGTGGGGCG
AGTGTCACGTGCGAGG
TGAAACACGTGGTGTT

Relative binding free energy, 0.14 kcal/mol:
TTAACCACGTGATTGG
AGGATCACGTGGGTGA
GATTACACGTGGGTGC
ATTTTCACGTGCTCGG
TTTTGCACGTGGACAA
CGGTGCACGTGACGTT

Relative binding free energy, 0.53 kcal/mol:
TTCTACACGTGAATAG

Relative binding free energy, 0.03 kcal/mol:
GGTGCCACGTGTAGGT
GCGAGCACGTGCGGGA
AGTCACACGTGCGGGT
GGTTACACGTGCTGAG
AAGGTCACGTGGTTGC
TTATGCACGTGTAATA
TGATGCACGTGTTAAG
AATGACACGTGATGGG
AGGGGCACGTGAATTA
AGAGTCACGTGGTCGG

Relative binding free energy, 0.21 kcal/mol:
TTTTACACGTGTGTCG
GTAATCACGTGCTTGG
AGGATCACGTGAAGGT
GGTGCCACGTGAATGT
TGGGTCACGTGAGCGC
TATGGCACGTGAATGT

Relative binding free energy, 0.17 kcal/mol:
GTAATCACGTGCGGTT
TAATCCACGTGGTTTA
AGTCTCACGTGTTTAA
ATGTACACGTGATTTG

Relative binding free energy, 0.3 kcal/mol:
TCGTTCACGTGCGTAT
AGTTTCACGTGAGCGT
GGTTACACGTGTGTAG

Relative binding free energy, 0.06 kcal/mol:
GATTGCACGTGTTATG
GATGTCACGTGCTGTA
GACGACACGTGGTGGG

Relative binding free energy, 0.12 kcal/mol:
CTGGGCACGTGAAAGT
AGATGCACGTGAGGGA
GTGGTCACGTGGGTCC
AAGTTCACGTGGGGGG
TTTATCACGTGTGGTA
TGGCTCACGTGGTAAT

Relative binding free energy, -0.31 kcal/mol:
TGGCGCACGTGGGATG
ATAGGCACGTGGTCGG

Relative binding free energy, 0.08 kcal/mol:
ATGAGCACGTGACGTG
TTGGGCACGTGATTAA
GGTTGCACGTGTCGCA
AGCGTCACGTGGGAAG
GTAAGCACGTGCGGCG
GGATGCACGTGTGTAT
GTTTGCACGTGCGAAT

Relative binding free energy, -0.09 kcal/mol:
GTGGCCACGTGTAGTT

Relative binding free energy, -0.16 kcal/mol:
AGTGACACGTGCTGGG
GGAAGCACGTGGGGCG
TTCGCCACGTGGGTGT
TGGGGCACGTGTGGCT

Relative binding free energy, -0.06 kcal/mol:
TGTAACACGTGGCTTT
TGTAACACGTGGGTTG

Relative binding free energy, 0.18 kcal/mol:
TTTGACACGTGTGTTT
TCTGTCACGTGGGAGA
GTTAACACGTGGTCAT
GTAGTCACGTGATTGT
TATAACACGTGTGAAG
GTGTTCACGTGTACAG

Relative binding free energy, 0.31 kcal/mol:
TTTCTCACGTGGACTG
TAGTTCACGTGTTGGA

Relative binding free energy, -0.07 kcal/mol:
TAAGACACGTGCGGGT
ACTGGCACGTGTGTTA
CAGGCCACGTGTGGGT
ATAATCACGTGGGTGA
CTGGGCACGTGGAGGG

Relative binding free energy, 0.32 kcal/mol:
CGGTACACGTGAGCGG
CTGGTCACGTGAGGTG
TGTGACACGTGAGGGA
GTTTTCACGTGCTTCG
TGATTCACGTGTGGTA

Relative binding free energy, -0.03 kcal/mol:
GATGTCACGTGGGAAT
CGAGTCACGTGGGGTA
TTGAGCACGTGTGTTC
AGCGTCACGTGCTGGG
GTCGACACGTGGGGGA

Relative binding free energy, -0.02 kcal/mol:
TTTGACACGTGGGCGG
ATGGGCACGTGAGCAG
TTTAGCACGTGTCGGA
TATGTCACGTGCTTAG
GGGTCCACGTGTGCTG
GTTGCCACGTGTTGGC
ATAGGCACGTGATGCG
AGAGGCACGTGATGAG

Relative binding free energy, 0.19 kcal/mol:
ATAGACACGTGAGGTG
TTTTTCACGTGGCTCT
TCTTACACGTGAGGTT
TAAGTCACGTGTGGTG

Relative binding free energy, 0.15 kcal/mol:
GTTCACACGTGGGGCG
GGCGTCACGTGTGAGT
AGCGTCACGTGGGAAA
TAAGACACGTGATGTG
TAGGGCACGTGTAGAT

Relative binding free energy, 0.25 kcal/mol:
TGGCTCACGTGTGGTA
GTCTACACGTGTTAGT
TACTTCACGTGTTGGA

Relative binding free energy, 0.1 kcal/mol:
TGGGTCACGTGCAATA
TCTATCACGTGCGGGT
GGGCACACGTGGACGG

Relative binding free energy, -0.27 kcal/mol:
CTTGGCACGTGGGTAC

Relative binding free energy, 0.26 kcal/mol:
GGGTCCACGTGTGGAC
GCCGTCACGTGAGGGG

Relative binding free energy, -0.05 kcal/mol:
GGTTGCACGTGGTCTG
AATAGCACGTGTGGAA
TACGTCACGTGGCGTT
TAGTGCACGTGGGTTT
TTCCGCACGTGTGTGA

Relative binding free energy, 0.46 kcal/mol:
GTCTTCACGTGAAGGG

Relative binding free energy, -0.26 kcal/mol:
GGAAGCACGTGGCGGT

Relative binding free energy, 0.24 kcal/mol:
GGCGTCACGTGTGATG
TGAATCACGTGTGGAA
TATGTCACGTGAGGAA
GGGTACACGTGAACGT
GGTTCCACGTGAGCGG
ATTTACACGTGTTAGT
GCAGGCACGTGAGGCG

Relative binding free energy, 0.05 kcal/mol:
ACTTGCACGTGGCTGG
AGAGACACGTGGATTG
GTTGGCACGTGTGTAT
CTTGGCACGTGACAGG
ATTCGCACGTGTAGCG
TGCAGCACGTGCGAGT

Relative binding free energy, -0.01 kcal/mol:
TTTGACACGTGGGATA
TGGGGCACGTGTACGT
GGGGTCACGTGCGTGC
GCTTACACGTGGGTGA
GTTGGCACGTGCGATT
TTTTGCACGTGGTCTC

Relative binding free energy, 0.47 kcal/mol:
TGGTTCACGTGAAGGA

Relative binding free energy, 0.01 kcal/mol:
AGTAACACGTGTGTGG
CGATACACGTGGTAGG
ACTCGCACGTGTGGTG

Relative binding free energy, 0.4 kcal/mol:
GAGGTCACGTGAAATG

Relative binding free energy, 0.38 kcal/mol:
TGGTTCACGTGTAGCA
GTTCTCACGTGGTTAG

Relative binding free energy, -0.29 kcal/mol:
AGTCGCACGTGGGGCG

Relative binding free energy, 0.23 kcal/mol:
TATTTCACGTGAACTT
AATGTCACGTGTAAGG
TTTTACACGTGTGAGT
TAGGTCACGTGTAGGC
TTGGTCACGTGTTGCG

Relative binding free energy, -0.17 kcal/mol:
TGGAGCACGTGCTGTA

Relative binding free energy, -0.2 kcal/mol:
ATCGGCACGTGCGGGT

Relative binding free energy, -0.28 kcal/mol:
TGGCGCACGTGGTATT

Relative binding free energy, 0.29 kcal/mol:
GTCTTCACGTGTTTTA

Relative binding free energy, -0.12 kcal/mol:
TAAACCACGTGGTGTT
AATTGCACGTGGGGGG
GTGTACACGTGGGGAC
TTTAACACGTGCTGTG
TATGCCACGTGTTGCG

Relative binding free energy, 0 kcal/mol:
AGTTGCACGTGTCAAG
ATGAGCACGTGATTAG
GTGTGCACGTGCTTAG
CGTGTCACGTGCGGGC
ATAGTCACGTGGGACT
AGTTACACGTGTCGTG
TTATGCACGTGCTTGG

Relative binding free energy, 0.28 kcal/mol:
GGCAGCACGTGAGGTT
GTCTTCACGTGGCGGT

Relative binding free energy, -0.22 kcal/mol:
TCTAGCACGTGTTGTG
TTACGCACGTGCTGTG
TGTAGCACGTGGTCTA

Relative binding free energy, 0.34 kcal/mol:
GGTCTCACGTGAAGGA
GTATTCACGTGTGGGC
CGTTTCACGTGAATTT
AACGTCACGTGAGAGT

Relative binding free energy, 0.2 kcal/mol:
TTTATCACGTGCCTTT
GTGACCACGTGAAGGG
TGGTCCACGTGACGGT
TGTATCACGTGGGAAT
GCTTGCACGTGAGAGT

Relative binding free energy, -0.08 kcal/mol:
CGTGACACGTGGTTGA
GAGGACACGTGGGGTC

Relative binding free energy, -0.04 kcal/mol:
ATTGACACGTGTTGCT
CGTGGCACGTGGAGAT
TCTAGCACGTGAGTGG
ATAGGCACGTGTATAG

Relative binding free energy, 0.33 kcal/mol:
GTGGTCACGTGATTGT

Relative binding free energy, 0.16 kcal/mol:
GGTGACACGTGTAGCT
CGTCGCACGTGAATGG
AAGGTCACGTGTTGGA

Relative binding free energy, -0.18 kcal/mol:
TGCGGCACGTGCTGAG
ATATACACGTGGGTGA
ATAAGCACGTGGGATT

Relative binding free energy, 0.36 kcal/mol:
CTTGACACGTGAGGGA
TGGGTCACGTGAATTC
GTTCGCACGTGAGGCA

Relative binding free energy, 0.07 kcal/mol:
AGTGGCACGTGATGGA
GAAGTCACGTGCTGTG
GATGTCACGTGGTTCT

Relative binding free energy, -0.25 kcal/mol:
TGGGGCACGTGCCAGG

Relative binding free energy, -0.14 kcal/mol:
ATAAGCACGTGTTAGA

Relative binding free energy, 0.22 kcal/mol:
ATTTGCACGTGAGTTA

Relative binding free energy, 0.09 kcal/mol:
TTCAGCACGTGACGGG
TGGGTCACGTGATATG
TGACGCACGTGATGGG

Relative binding free energy, -0.15 kcal/mol:
AGAGGCACGTGTTAGA
TGGCGCACGTGTTTGA
AGATGCACGTGGAATG
CAAGACACGTGGGTGT
GTGAGCACGTGCGGCG

Relative binding free energy, 0.04 kcal/mol:
TTTTACACGTGTATAG
GCGGGCACGTGGTTAT

Relative binding free energy, -0.11 kcal/mol:
GATAGCACGTGGGGTA

Relative binding free energy, 0.35 kcal/mol:
ATGTACACGTGAGCTT

Relative binding free energy, 0.27 kcal/mol:
TCATTCACGTGTAGTG

Relative binding free energy, -0.21 kcal/mol:
ATGAGCACGTGGCCGG
CGGCACACGTGGGGTG
ATTGGCACGTGTTATA
